# No constants are given. Whether binding was seen depends on the method and setting. Some results given as binding are weak or reduced against the parent protein; the word gives no strength. For some assays here: Tags and fused reporters may be left off the sequences shown.
# Sequences of proteins named here, by UniProt entry; tags and fusion partners are left off. A change or cut given only in a name is not applied to a line headed by its entry. Residues count along the entry.
# UniProt P37023, residues 22-118: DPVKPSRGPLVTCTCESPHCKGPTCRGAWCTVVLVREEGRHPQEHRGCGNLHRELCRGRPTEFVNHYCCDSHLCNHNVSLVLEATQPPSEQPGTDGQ
# UniProt P36894, residues 24-152: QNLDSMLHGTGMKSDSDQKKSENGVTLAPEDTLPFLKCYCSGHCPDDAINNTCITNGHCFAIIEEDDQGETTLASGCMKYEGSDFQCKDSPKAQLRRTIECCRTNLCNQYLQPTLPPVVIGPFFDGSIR
# UniProt P27037: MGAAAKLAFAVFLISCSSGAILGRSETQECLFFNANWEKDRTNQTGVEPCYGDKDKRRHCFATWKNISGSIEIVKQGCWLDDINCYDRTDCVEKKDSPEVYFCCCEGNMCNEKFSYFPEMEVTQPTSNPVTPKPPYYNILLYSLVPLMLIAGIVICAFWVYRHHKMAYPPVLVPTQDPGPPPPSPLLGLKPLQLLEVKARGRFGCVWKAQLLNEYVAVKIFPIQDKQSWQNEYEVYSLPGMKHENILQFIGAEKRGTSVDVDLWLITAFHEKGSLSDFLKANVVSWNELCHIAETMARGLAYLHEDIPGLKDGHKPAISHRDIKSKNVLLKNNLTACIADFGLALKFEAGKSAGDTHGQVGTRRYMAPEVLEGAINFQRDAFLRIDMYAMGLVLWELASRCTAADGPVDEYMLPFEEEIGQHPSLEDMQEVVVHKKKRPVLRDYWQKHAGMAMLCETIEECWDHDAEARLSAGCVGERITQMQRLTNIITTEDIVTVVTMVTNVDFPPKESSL
# UniProt P36896, residues 24-126: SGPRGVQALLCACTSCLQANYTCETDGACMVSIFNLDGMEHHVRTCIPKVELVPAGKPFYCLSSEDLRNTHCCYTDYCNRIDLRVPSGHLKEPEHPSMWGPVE
# T1: MISRII extracellular domain, C-terminal Fc-tagged chimera (UniProt Q16671)
# T1 sequence: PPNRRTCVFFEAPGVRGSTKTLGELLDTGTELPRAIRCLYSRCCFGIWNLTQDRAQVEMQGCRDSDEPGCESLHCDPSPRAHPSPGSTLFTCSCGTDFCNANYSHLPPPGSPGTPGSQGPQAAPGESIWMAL
# T2: ActRIIb extracellular domain, C-terminal Fc-tagged chimera (UniProt Q13705)
# T2 sequence: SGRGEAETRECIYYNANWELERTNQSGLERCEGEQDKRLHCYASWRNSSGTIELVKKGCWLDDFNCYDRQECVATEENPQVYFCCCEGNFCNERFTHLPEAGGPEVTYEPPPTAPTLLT
# T3: BMPRIb (ALK6) extracellular domain, C-terminal Fc-tagged chimera (UniProt O00238)
# T3 sequence: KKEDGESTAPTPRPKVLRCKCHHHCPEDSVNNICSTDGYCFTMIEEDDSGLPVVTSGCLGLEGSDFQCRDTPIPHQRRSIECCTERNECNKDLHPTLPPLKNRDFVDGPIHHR
# T4: TGFβRI (ALK5) extracellular domain, C-terminal Fc-tagged chimera (UniProt P36897)
# T4 sequence: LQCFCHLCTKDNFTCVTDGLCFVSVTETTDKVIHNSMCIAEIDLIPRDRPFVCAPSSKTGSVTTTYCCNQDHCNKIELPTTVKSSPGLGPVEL
# T5: ActRIa (ALK2) extracellular domain, C-terminal Fc-tagged chimera (UniProt Q04771)
# T5 sequence: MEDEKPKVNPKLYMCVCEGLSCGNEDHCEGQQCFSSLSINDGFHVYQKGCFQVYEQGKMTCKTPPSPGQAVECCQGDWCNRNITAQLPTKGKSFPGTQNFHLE
# T6: ALK7 extracellular domain, C-terminal Fc-tagged chimera (UniProt Q8NER5)
# T6 sequence: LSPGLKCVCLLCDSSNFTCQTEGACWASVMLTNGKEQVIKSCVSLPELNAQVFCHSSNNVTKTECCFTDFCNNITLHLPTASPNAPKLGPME
# T7: BMPRII extracellular domain, C-terminal Fc-tagged chimera (UniProt Q13873)
# T7 sequence: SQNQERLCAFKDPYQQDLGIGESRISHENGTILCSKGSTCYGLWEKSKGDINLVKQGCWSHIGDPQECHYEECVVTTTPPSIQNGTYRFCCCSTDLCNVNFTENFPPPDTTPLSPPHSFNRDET
# B1: MB109 (E. coli-derived mature domain of human bone morphogenetic protein-9, refolded functional dimer) (ligand, UniProt Q9UK05 320-429)
# chain: MSAGAGSHCQKTSLRVNFEDIGWDSWIIAPKEYEAYECKGGCFFPLADDVTPTKHAIVQTLVHLKFPTKVGKACCVPTKLSPISVLYKDDMGVPTLKYHYEGMSVAECGCR
# Experiments:
# Assay in all cases: SPR; BIAcore 3000, 25°C; ECD-Fc proteins (in 10 mM Na-acetate, pH 4.0) captured on CM5 chip to ~1,000 response units; MB109 injected in 2-fold dilutions from 20 to 0.3 nM in 10 mM HEPES pH 7.4, 150 mM NaCl, 3.4 mM EDTA, 0.005% Tween-20; global 1:1 Langmuir binding with mass transfer model; both purified
# [1] = target: ALK1 extracellular domain, C-terminal Fc-tagged chimera (UniProt P37023)
# [2] = target: BMPRIa (ALK3) extracellular domain, C-terminal Fc-tagged chimera (UniProt P36894)
# [3] = target: T1, MISRII extracellular domain, C-terminal Fc-tagged chimera
# [4] = target: T2, ActRIIb extracellular domain, C-terminal Fc-tagged chimera
# [5] = target: ActRIIa extracellular domain, C-terminal Fc-tagged chimera (UniProt P27037)
# [6] = target: T3, BMPRIb (ALK6) extracellular domain, C-terminal Fc-tagged chimera
# [7] = target: ActRIb (ALK4) extracellular domain, C-terminal Fc-tagged chimera (UniProt P36896)
# [8] = target: T4, TGFβRI (ALK5) extracellular domain, C-terminal Fc-tagged chimera
# [9] = target: T5, ActRIa (ALK2) extracellular domain, C-terminal Fc-tagged chimera
# [10] = target: T6, ALK7 extracellular domain, C-terminal Fc-tagged chimera
# [11] = target: T7, BMPRII extracellular domain, C-terminal Fc-tagged chimera
binder,measurement,setting,value
B1,binding,[1],binds
same,binding,[2],no binding (tested: 20 nM (tested from 20 to 0.3 nM))
same,binding,[3],no binding (tested: 20 nM (tested from 20 to 0.3 nM))
same,binding,[4],binds
same,binding,[5],binds weakly
same,binding,[6],no binding (tested: 20 nM (tested from 20 to 0.3 nM))
same,binding,[7],no binding (tested: 20 nM (tested from 20 to 0.3 nM))
same,binding,[8],no binding (tested: 20 nM (tested from 20 to 0.3 nM))
same,binding,[9],no binding (tested: 20 nM (tested from 20 to 0.3 nM))
same,binding,[10],no binding (tested: 20 nM (tested from 20 to 0.3 nM))
same,binding,[11],binds

# From paper PMC3936849
